# Reference: the supplement of paper PMC11417369
# ± gives the standard deviation of the averaged measurements. The list shows a part of the results.
# System: PfAP2-LT AP2 domain (GST-tagged)
# Test: gcPBM binding intensity (ln(normalized median fluorescence intensity)); higher = stronger DNA binding
# Outline: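 Plasmodium falciparum DNA-binding domains carrying a GST tag were expressed in E. coli and applied for 1 h, at about 25 μg on average, to an Agilent 4 × 180k array. The array held primer-extended double-stranded 36-bp intergenic genomic probes together with negative controls, and binding took place in 1× PBS with 1% milk, 0.2 mg/ml BSA, 0.5% salmon testes DNA and 0.03% Triton X-100. An Alexa488 anti-GST antibody detected bound protein, and the array was scanned at 488 nm. Binding intensity is taken as the highest Masliner-normalised natural-log median intensity across replicate spots of either probe orientation.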
row,Sequence,gcPBM binding intensity (ln)
1,ATATTATTTTAAAAAAGTACATTTTTAAGAATTCTT [XGTACX_site6630],8.32 ± 0.4
2,ATAAAATTTATATAAGCACACAAATATATATTTATA [CACACA_site9083],8.69 ± 0.47
3,AATTGCATAATATATTCACACATTTTTAAGTGATAC [CACACA_site5679],8.71 ± 0.35
4,GTAAAGGCTATATATGTGCACATTTTTTTTTTTTTT [GTGCAC_site9925],8.91 ± 0.45
5,TTATGGTTATACATATGTACATATATATATATATAT [XGTACX_site1494],9.47 ± 0.2
6,TATCATTATGTAGAAACACACATAAGCTTCGGTTCA [CACACA_site2766],8.79 ± 0.43
7,GGGGAAAAAAAAAAAGGAAAAAGAAAAAAAAAAAAA [GTGCAC_negctrl_site489],8.32 ± 0.64
8,AAAAAAAAAAAAAAAAAAAAAAAAATATATATATAT [CACACA_negctrl_site436],9.25 ± 0.27
9,GTTGTGTAATTCGTAACACACATAAAATATAAATAA [CACACA_site7799],9.11 ± 0.43
10,TTACTATATAATATGTGTACACAACATATAATATAT [XGTACX_site1383],8.84 ± 0.38
11,TTTTTTTTTTGATGTTGTACTTATATACTATATAAT [XGTACX_site2778],8.7 ± 0.51
12,CATTTTTAAAAAAATTGTACAAAACATATATGTGTA [XGTACX_site3396],8.57 ± 0.44
13,TTCCTTTTGAACTCTCGTACGCGTAGGTGTTATTAT [XGTACX_site6264],9.06 ± 0.55
14,TATTAAAAGTAAAAAACACACATGGATATATACATA [CACACA_site3959],8.89 ± 0.4
15,TATGTGTGACAAAATTGTACGGTCTCTTTATTTTGT [XGTACX_site2679],8.96 ± 0.38
16,TATACGGACTCTAAGTGTACTTAAAATAATTCAAAC [XGTACX_site3606],8.63 ± 0.43
17,TAAAAATGTTGACACACACACATAAATATATTTTAT [CACACA_site7227],9.22 ± 0.36
18,TATATTGCCCTTCACACACACACATATATATATATA [CACACA_site2492],10 ± 0.13
19,ATTTTTATACCTAAGTGTACATGATGTTTTCTTTTT [XGTACX_site973],9.01 ± 0.47
20,TATTATATAATAAAAATTATTATTATTTGTATAAAT [CACACA_negctrl_site195],8.13 ± 0.38
21,TAAATAAATAAAAAAACACACATATAAATATAAATA [CACACA_site7815],8.9 ± 0.52
22,TGTTTCCTATTTTGTATGCACTTTTTGTCATAATTA [GTGCAC_site9921],8.98 ± 0.49

row,Sequence,gcPBM binding intensity (ln)
1,TAAACAGACATACATACACACATACATACAGACATA [CACACA_site6997],9.61 ± 0.37
2,AAAAAAAAAGTATATATATATTTAAGGAATTCTCTC [GTGCAC_negctrl_site454],8.46 ± 0.47
3,CATATACTCGGACACACACACACACCGACAAAAAAA [CACACA_site4433],10.1 ± 0.41
4,TTTTGTGGAGGATGGTGTACGGTATTGTATTATTAC [XGTACX_site1942],9.16 ± 0.44
5,TTTATAGTTTTTAATAGTACACATATTTTTAAGTAT [XGTACX_site5498],8.53 ± 0.46
6,TATCATAAAATATGTAGTACGTATATATATAAAAAT [XGTACX_site5455],8.97 ± 0.41
7,AATATATAGCTAAAAACACACAAATATATACTCATA [CACACA_site5904],8.98 ± 0.46
8,CTCACGTAGCTTGATGCATGCAAACTTGAGTAAAAG [TGCATGCA_site409],8.83 ± 0.4
9,ATACATTTTTTTTTCACACATATATATATATTTAAT [CACACA_site5995],8.91 ± 0.43
10,TTTATAAAATTTATTGCACACAATTATTTTATAATT [CACACA_site2489],8.93 ± 0.53
11,CAACCTTTTTTGTTGGTGCATAATTTTTTTTTCTTT,8.56 ± 0.42
12,ATATATATATATTGCACACATATAAATATATATATT [CACACA_site807],9.04 ± 0.29
13,CTTAAATTTTTAAATACACACATACACCCATACACA [CACACA_site4461],9.315 ± 0.064
14,AAACCCTATTCAATGCAATAATTTTATAATTTTTTT [TGCATGCA_negctrl_site434],8.44 ± 0.44
15,TTTTTTTTAAATATCACACACATATAATATATTCTA [CACACA_site3668],8.81 ± 0.43
16,TTTATTATAATATGTTGTACAAGACGTTTCAGTATA [XGTACX_site4486],8.57 ± 0.38
17,AAATTATCTTAATAGGATGTTCAAGGAGAAAGATGA [CACACA_negctrl_site1032],8.65 ± 0.44
18,TAAATTAATACCTATGCACACATTTTTTTTTTTAAA [CACACA_site1238],8.69 ± 0.41
19,TTACCTTTTTCTAATGGTACACATAAAATATCATTT [XGTACX_site6825],8.6 ± 0.36
20,TTTTCTTACACGAATTTTAAATTCAATATTAAACAT [CACACA_negctrl_site286],8.41 ± 0.44
21,GAGTTAATTTTTTCGTGTACTTGAAAATATTTTTTT [XGTACX_site6392],8.72 ± 0.51
22,TTAGCAACTATTACTACACACATTTGTATATAACTT [CACACA_site6850],9.13 ± 0.45
